In all, about 39,000 compounds went through this assay and about 220 (0.56%) showed activity. The list shows a part of the results.
Tested on: Escherichia coli K-12 BW25113
Experiment: relative growth (OD600 normalised to plate interquartile mean) (fraction); higher = less growth inhibition, active = 0.2 or less
Details: 50 µM; LB; incubation time: overnight (16-24 h)
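Also: static incubation at 37 °C against the wild-type strain, values averaged over two biological replicates.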

Question: For `C[C@@H]1CN([C@H](C)CO)C(=O)Cc2cc(NC(=O)Cc3ccccc3)ccc2O[C@H]1CN(C)Cc1ccc(Oc2ccccc2)cc1`, which relative growth is on record?
Answer: Its relative growth is inactive: 0.984.

Question: `Cc1ccc(S(=O)(=O)N(C)C[C@@H]2Oc3ccc(NC(=O)C4CC4)cc3CC(=O)N([C@@H](C)CO)C[C@H]2C)cc1` was tested. Which relative growth did it give?
Answer: Its relative growth is inactive: 1.02.

Question: Which relative growth does the source give for `C[C@@H]1CCCCO[C@H](CN(C)C(=O)Nc2cccc3ccccc23)[C@H](C)CN([C@@H](C)CO)C(=O)c2cc(NC(=O)Nc3ccccc3)ccc2O1` here?
Answer: The relative growth was inactive: 1.03.

Question: `N[C@H]1CC[C@@H](CCn2cc(-c3ccccn3)nn2)O[C@H]1CO` was tested. Which relative growth did it give?
Answer: Its relative growth is inactive: 1.02.

Question: For `C[C@@H]1CN([C@@H](C)CO)C(=O)c2cc(C#CC3(O)CCCC3)cnc2O[C@H]1CN(C)S(C)(=O)=O`, which relative growth is on record?
Answer: The relative growth was inactive: 1.02.

Question: Which relative growth does the source give for `NS(=O)(=O)c1ccc(N2CCCC2=O)cc1` here?
Answer: Its relative growth is inactive: 1.04.

Question: Which relative growth does the source give for `COc1ccc(NC(=O)Nc2ccc3c(c2)CC(=O)N([C@H](C)CO)C[C@H](C)[C@H](CN(C)S(C)(=O)=O)O3)cc1` here?
Answer: The relative growth was inactive: 0.997.

Question: `C[C@H](CO)N1C[C@H](C)[C@@H](CN(C)S(=O)(=O)c2ccccc2)Oc2ccc(NS(=O)(=O)c3cn(C)cn3)cc2CC1=O` was tested. Which relative growth did it give?
Answer: The relative growth was inactive: 1.01.

Question: For `C[C@@H]1CN([C@@H](C)CO)C(=O)c2cc(C#Cc3ccc(F)cc3)cnc2O[C@@H]1CN(C)Cc1ccccn1`, which relative growth is on record?
Answer: The relative growth was inactive: 0.995.

Question: How did the relative growth turn out when `c1nc2c(c(N3CCOCC3)n1)CCNCC2` was run?
Answer: The relative growth was inactive: 1.05.

Question: Which relative growth does the source give for `Cc1ccc2nc(CN)[nH]c2c1` here?
Answer: The relative growth was inactive: 0.978.

Question: `C[C@@H]1CN([C@@H](C)CO)C(=O)c2cc(NC(=O)CCCCCC(=O)Nc3ccccc3N)ccc2O[C@H]1CN(C)Cc1ccccc1` was tested. Which relative growth did it give?
Answer: The relative growth was inactive: 0.984.

Question: `C[C@H](CO)N1C[C@H](C)[C@@H](CN(C)Cc2ccncc2)Oc2c(NC(=O)C3CCOCC3)cccc2C1=O` was tested. Which relative growth did it give?
Answer: Its relative growth is inactive: 1.02.

Question: How did the relative growth turn out when `C[C@@H]1CN([C@@H](C)CO)C(=O)c2cccc(NC(=O)C3CCOCC3)c2O[C@H]1CN(C)Cc1ccccc1` was run?
Answer: The relative growth was inactive: 0.994.

Question: With `C[C@@H]1CN([C@H](C)CO)C(=O)Cc2cc(NC(=O)Nc3ccc4c(c3)OCO4)ccc2O[C@H]1CN(C)Cc1ccc(C(F)(F)F)cc1` as the molecule, how does the relative growth read?
Answer: The relative growth was inactive: 1.03.

Question: Which relative growth does the source give for `COc1ccccc1S(=O)(=O)N(C)C[C@@H]1OCc2cn(nn2)CCCC(=O)N([C@H](C)CO)C[C@H]1C` here?
Answer: Its relative growth is inactive: 0.97.

Question: With `C[C@@H]1CN([C@H](C)CO)C(=O)c2cc(NC(=O)CCCCCC(=O)Nc3ccccc3N)ccc2O[C@H]1CN(C)Cc1ccccc1` as the molecule, how does the relative growth read?
Answer: Its relative growth is inactive: 0.964.

Question: How did the relative growth turn out when `CC(=O)NC[C@H]1C[C@@H](N(C(C)=O)S(=O)(=O)c2cccc3cncc(C)c23)CN1` was run?
Answer: Its relative growth is inactive: 0.989.

Question: For `C[C@@H]1CCCCO[C@@H](CN(C)C(=O)Nc2ccc3c(c2)OCO3)[C@@H](C)CN([C@H](C)CO)C(=O)c2cc(NC(=O)Nc3ccc4c(c3)OCO4)ccc2O1`, which relative growth is on record?
Answer: Its relative growth is inactive: 1.02.

Question: How did the relative growth turn out when `CO[C@H]1CN(C)C(=O)c2ccc(NS(=O)(=O)c3ccccc3)cc2OC[C@H](C)N(C(=O)NC(C)C)C[C@H]1C` was run?
Answer: Its relative growth is inactive: 0.968.

Question: How did the relative growth turn out when `N[C@H](CSCCB(O)O)C(=O)O` was run?
Answer: The relative growth was inactive: 1.04.

Question: `C[C@@H]1CCCCO[C@@H](CN(C)Cc2ccccc2)[C@@H](C)CN([C@@H](C)CO)C(=O)c2cc(NC(=O)CCC(F)(F)F)ccc2O1` was tested. Which relative growth did it give?
Answer: The relative growth was inactive: 0.989.

Question: `C[C@@H]1CN([C@@H](C)CO)C(=O)c2cc(NC(=O)Nc3ccc(C(F)(F)F)cc3)ccc2O[C@H]1CN(C)CC1CCCCC1` was tested. Which relative growth did it give?
Answer: The relative growth was inactive: 0.968.

Question: Which relative growth does the source give for `O=C(CCCCCC(=O)Nc1ccccc1O)N/N=C/[C@H](O)[C@@H](O)[C@@H](O)[C@H](O)C(=O)O` here?
Answer: Its relative growth is inactive: 0.996.

Question: How did the relative growth turn out when `C[C@@H]1CN([C@H](C)CO)C(=O)c2cccc(NC(=O)C3CC3)c2O[C@@H]1CN(C)S(=O)(=O)c1ccc(F)cc1` was run?
Answer: The relative growth was inactive: 1.

Question: `Cc1ccc(S(=O)(=O)N(C)C[C@H]2OCCCC[C@H](C)Oc3ccc(NC(=O)Nc4ccc(C(F)(F)F)cc4)cc3C(=O)N([C@H](C)CO)C[C@H]2C)cc1` was tested. Which relative growth did it give?
Answer: The relative growth was inactive: 1.01.

Question: How did the relative growth turn out when `OCCCn1cnnc1` was run?
Answer: The relative growth was inactive: 1.06.

Question: How did the relative growth turn out when `N[C@H]1CCCC[C@@H]1N1C(=O)CSC1=O` was run?
Answer: The relative growth was inactive: 1.

Question: How did the relative growth turn out when `CO[C@H]1CN(C)C(=O)c2cc(NS(=O)(=O)c3cn(C)cn3)ccc2OC[C@@H](C)N(CCC(F)(F)F)C[C@H]1C` was run?
Answer: The relative growth was inactive: 0.995.

Question: `C[C@]12CC[C@@H]3[C@]4(C=C[C@@]5(C=C4C(=O)C4CCCCC4)C[C@@H](O)CC[C@]35C)[C@@H]1CC[C@@]2(O)CN1CCC(n2c(=O)[nH]c3ccccc32)CC1` was tested. Which relative growth did it give?
Answer: The relative growth was inactive: 0.977.

Question: `C[C@@H]1CN([C@H](C)CO)C(=O)c2cccc(NS(C)(=O)=O)c2O[C@@H]1CN(C)S(=O)(=O)c1ccc(Cl)cc1` was tested. Which relative growth did it give?
Answer: Its relative growth is inactive: 0.979.

Question: `CC(C)C#Cc1ccc2c(c1)O[C@H](CN(C)S(=O)(=O)c1cn(C)cn1)[C@H](C)CN([C@H](C)CO)S2(=O)=O` was tested. Which relative growth did it give?
Answer: The relative growth was inactive: 0.993.

Question: Which relative growth does the source give for `C[C@@H]1CN([C@@H](C)CO)C(=O)Cc2cc(NS(=O)(=O)c3cn(C)cn3)ccc2O[C@@H]1CN(C)C` here?
Answer: The relative growth was inactive: 1.02.

Question: Which relative growth does the source give for `CC(=O)SCC(Cc1ccccc1)C(=O)NCC(=O)OCc1ccccc1` (stereo unspecified) here?
Answer: Its relative growth is inactive: 0.991.

Question: `COc1ccc([Si](C)(C)[C@H]2[C@H](CCOC(=O)NCCCCCC(=O)NO)O[C@]3(C(=O)N(Cc4cccc(I)c4)c4ccccc43)[C@@H]2C)cc1` was tested. Which relative growth did it give?
Answer: Its relative growth is inactive: 1.03.

Question: How did the relative growth turn out when `C[C@@H]1CCCCO[C@H](CN(C)C(=O)C2CCCCC2)[C@@H](C)CN([C@@H](C)CO)C(=O)c2cc(NC(=O)c3ccccc3)ccc2O1` was run?
Answer: Its relative growth is inactive: 0.976.

Question: For `C[C@@H]1CN([C@@H](C)CO)C(=O)Cc2cc(NC(=O)C3CCCCC3)ccc2O[C@H]1CN(C)Cc1ccc(Cl)c(Cl)c1`, which relative growth is on record?
Answer: The relative growth was inactive: 0.983.

Question: `C[C@H]1CN([C@@H](C)CO)C(=O)Cc2cc(NS(=O)(=O)c3cn(C)cn3)ccc2O[C@@H]1CN(C)S(=O)(=O)c1ccc(F)cc1` was tested. Which relative growth did it give?
Answer: The relative growth was inactive: 0.981.

Question: With `COc1ccc([Si](C)(C)[C@@H]2[C@@H](CCO)O[C@]3(C(=O)N(Cc4ccccc4)c4ccc(N(C=O)c5ccccc5)cc43)[C@H]2C)cc1` as the molecule, how does the relative growth read?
Answer: Its relative growth is inactive: 1.02.

Question: With `C[C@H](CO)N1C[C@H](C)[C@H](CN(C)C(=O)Nc2ccc(C(F)(F)F)cc2)Oc2c(NC(=O)Nc3ccccc3)cccc2C1=O` as the molecule, how does the relative growth read?
Answer: The relative growth was inactive: 0.985.

Question: Which relative growth does the source give for `C[C@H]1CN([C@@H](C)CO)C(=O)c2cccc(NC(=O)c3ccc(-c4nccs4)cc3)c2O[C@@H]1CN(C)Cc1ccc(C(F)(F)F)cc1` here?
Answer: The relative growth was inactive: 1.03.

Question: How did the relative growth turn out when `Cc1ccc(S(=O)(=O)Nc2ccc3c(c2)C(=O)N([C@@H](C)CO)C[C@@H](C)[C@H](CN(C)C(=O)Nc2ccc4c(c2)OCO4)OCCCC[C@@H](C)O3)cc1` was run?
Answer: Its relative growth is inactive: 1.01.

Question: For `COc1ccc(CN(CCN(C)C)c2ccccn2)cc1.O=C(O)C=CC(=O)O`, which relative growth is on record?
Answer: Its relative growth is inactive: 1.09.

Question: How did the relative growth turn out when `C[C@@H]1CN([C@H](C)CO)C(=O)c2cccc(NS(=O)(=O)c3cn(C)cn3)c2O[C@H]1CN(C)CC1CCCCC1` was run?
Answer: The relative growth was inactive: 0.983.

Question: `Cc1noc(C)c1S(=O)(=O)Nc1ccc2c(c1)CC(=O)N([C@H](C)CO)C[C@@H](C)[C@H](CN(C)C(=O)Nc1ccc3c(c1)OCO3)O2` was tested. Which relative growth did it give?
Answer: The relative growth was inactive: 0.989.

Question: How did the relative growth turn out when `C[C@@H]1CN([C@@H](C)CO)C(=O)c2cc(NC(=O)Cn3cnnn3)ccc2O[C@H]1CN(C)Cc1ccc(C(=O)O)cc1` was run?
Answer: The relative growth was inactive: 1.05.

Question: With `C[C@@H]1CN([C@H](C)CO)C(=O)Cc2cc(NC(=O)NC3CCCCC3)ccc2O[C@H]1CN(C)Cc1ccc(-c2ccccc2)cc1` as the molecule, how does the relative growth read?
Answer: The relative growth was inactive: 1.04.

Question: For `O=C(C[C@H]1C[C@@H]2c3cc(NS(=O)(=O)c4ccc(F)cc4)ccc3O[C@@H]2[C@H](CO)O1)N1CCCCC1`, which relative growth is on record?
Answer: Its relative growth is inactive: 0.998.

Question: For `C[C@@H](OCc1ccccc1)[C@H]1NC(=O)[C@@]23C(=O)N[C@@H](Cc4ccccc4)[C@H]2[C@H](C)[C@@]2(C)O[C@H]2[C@@H]3/C=C/C/C=C\CNC(=O)CNC1=O`, which relative growth is on record?
Answer: Its relative growth is inactive: 1.

Question: How did the relative growth turn out when `O=c1[nH]ncn1-c1ccccc1` was run?
Answer: Its relative growth is inactive: 0.969.

Question: How did the relative growth turn out when `C[N+](C)(C)[C@@H]1[C@H]2OC[C@H](O)[C@H]2O[C@@H]1O` was run?
Answer: Its relative growth is inactive: 1.01.

Question: For `Cc1noc(C)c1S(=O)(=O)Nc1ccc2c(c1)C(=O)N([C@@H](C)CO)C[C@@H](C)[C@H](CN(C)C(=O)NC1CCCCC1)O2`, which relative growth is on record?
Answer: The relative growth was inactive: 1.01.

Question: For `COc1ccc(NC(=O)N(C)C[C@@H]2OCCCC[C@@H](C)Oc3ccc(NC(=O)Nc4cccc5ccccc45)cc3C(=O)N([C@@H](C)CO)C[C@@H]2C)cc1`, which relative growth is on record?
Answer: The relative growth was inactive: 1.04.

Question: Which relative growth does the source give for `C[C@@H]1CCCCO[C@H](CN(C)C(=O)Nc2ccc(F)cc2)[C@H](C)CN([C@H](C)CO)C(=O)c2cc(NC(=O)Cc3ccccc3)ccc2O1` here?
Answer: Its relative growth is inactive: 0.995.

Question: For `O=C1CCC(c2ccc(O)cc2)CC1`, which relative growth is on record?
Answer: The relative growth was inactive: 0.993.

Question: `O=C(C[C@@H]1C=C[C@H](NC(=O)C2CCC2)[C@H](CO)O1)NCCCN1CCOCC1` was tested. Which relative growth did it give?
Answer: Its relative growth is inactive: 1.

Question: `C[C@H]1CCCCO[C@H](CN(C)C(=O)Nc2ccc(C(F)(F)F)cc2)[C@@H](C)CN([C@@H](C)CO)C(=O)c2cc(NC(=O)c3ccncc3)ccc2O1` was tested. Which relative growth did it give?
Answer: Its relative growth is inactive: 0.915.

Question: With `C[C@@H]1CCCCO[C@@H](CN(C)Cc2ccc(C(F)(F)F)cc2)[C@H](C)CN([C@@H](C)CO)C(=O)c2cc(NS(=O)(=O)c3cccs3)ccc2O1` as the molecule, how does the relative growth read?
Answer: The relative growth was inactive: 1.

Question: `Cc1csc2sc(/C=N/Cc3cccs3)c(C)c12` was tested. Which relative growth did it give?
Answer: The relative growth was inactive: 1.01.

Question: With `COCCNC(=O)C[C@@H]1C[C@@H]2c3cc(NC(=O)Nc4ccc(C(F)(F)F)cc4)ccc3O[C@@H]2[C@H](CO)O1` as the molecule, how does the relative growth read?
Answer: The relative growth was inactive: 1.01.

Question: Which relative growth does the source give for `C[C@@H]1CN([C@@H](C)CO)C(=O)c2cc(NC(=O)Nc3ccc(C(F)(F)F)cc3)ccc2O[C@@H]1CN(C)S(C)(=O)=O` here?
Answer: Its relative growth is inactive: 0.942.
